From the supplement of paper PMC7826260
The list shows a part of the results. Each Rep nickase domain was tested in vitro on the same pool of single strands (3 µM enzyme, 1 h, 37 °C); shown is the middle of each 90-letter strand. A value is the log2 ratio of uncut reads to the pool without enzyme; strong cutting gives strongly negative numbers. There is no active / inactive call. Because reads are shares of a total, they shift together; where an enzyme cuts many sequences, the uncut ones exceed 0.

Assays:
Test in all cases: uncleaved DNA left, log2 of reads against the no-enzyme library (log2 ratio); higher = less cleavage (more negative = more Rep cleavage of the k-mer); sequences stand for … in CTCGTCCG…ACCGGAGA
[1] = test system: T1, Rep nickase domain of Muscovy duck circovirus
T1 sequence (Rep 1-111, printed without the tag): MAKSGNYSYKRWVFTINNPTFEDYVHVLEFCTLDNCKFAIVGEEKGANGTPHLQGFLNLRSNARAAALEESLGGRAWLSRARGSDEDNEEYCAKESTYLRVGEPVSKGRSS
Experimental: (§1)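 A pool of 90-nt single-stranded DNAs with seven random bases just before the constant AC of the nick site (name = the seven bases) was cut by 3 µM recombinant His6-SUMO-tagged Rep nickase domain (300 nM DNA, 50 mM HEPES pH 8.0, 50 mM NaCl, 1 mM MnCl2, 1 h, 37 °C, three replicates). Uncut DNA was amplified and sequenced.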

[2] = test system: T2, Rep nickase domain of banana bunchy top virus
T2 sequence (Rep 1-94, printed without the tag): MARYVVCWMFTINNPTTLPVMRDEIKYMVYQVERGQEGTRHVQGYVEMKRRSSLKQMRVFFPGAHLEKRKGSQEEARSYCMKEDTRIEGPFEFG
Experimental: as §1

[3] = test system: T3, Rep nickase domain of cabbage leaf curl virus
T3 sequence (Rep 1-116, printed without the tag): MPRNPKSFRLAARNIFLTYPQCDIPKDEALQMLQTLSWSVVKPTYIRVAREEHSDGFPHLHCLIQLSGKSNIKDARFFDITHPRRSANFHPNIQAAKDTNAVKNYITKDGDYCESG
Experimental: as §1

[4] = test system: T4, Rep nickase domain of chickpea chlorotic dwarf virus
T4 sequence (Rep 1-124, printed without the tag): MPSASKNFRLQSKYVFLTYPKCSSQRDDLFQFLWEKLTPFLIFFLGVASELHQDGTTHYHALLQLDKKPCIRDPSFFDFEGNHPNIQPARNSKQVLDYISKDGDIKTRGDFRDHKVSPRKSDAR
Experimental: as §1

[5] = test system: T5, Rep nickase domain of faba bean necrotic yellows virus
T5 sequence (Rep 1-98, printed without the tag): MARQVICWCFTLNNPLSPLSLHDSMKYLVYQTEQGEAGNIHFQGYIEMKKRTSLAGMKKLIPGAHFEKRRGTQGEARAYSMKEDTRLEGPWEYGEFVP
Experimental: as §1

[6] = test system: T6, Rep nickase domain of maize striate mosaic virus
T6 sequence (Rep 1-117, printed without the tag): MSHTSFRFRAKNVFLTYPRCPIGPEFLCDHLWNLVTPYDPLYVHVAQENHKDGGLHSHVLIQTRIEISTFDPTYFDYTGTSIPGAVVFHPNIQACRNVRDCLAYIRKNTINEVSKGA
Experimental: as §1

[7] = test system: T7, Rep nickase domain of porcine circovirus 2
T7 sequence (Rep 2-116, printed without the tag): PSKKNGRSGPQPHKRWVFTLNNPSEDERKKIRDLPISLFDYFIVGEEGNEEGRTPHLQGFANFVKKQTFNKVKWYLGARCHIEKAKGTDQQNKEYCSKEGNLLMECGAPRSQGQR
Experimental: as §1

[8] = test system: T8, Rep nickase domain of tomato golden mosaic virus
T8 sequence (Rep 1-124, printed without the tag): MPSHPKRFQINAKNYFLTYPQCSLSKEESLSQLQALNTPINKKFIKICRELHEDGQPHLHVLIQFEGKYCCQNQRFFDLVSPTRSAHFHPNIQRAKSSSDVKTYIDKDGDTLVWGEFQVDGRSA
Experimental: as §1

[9] = test system: T9, Rep nickase domain of tomato yellow leaf curl virus
T9 sequence (Rep 1-136, printed without the tag): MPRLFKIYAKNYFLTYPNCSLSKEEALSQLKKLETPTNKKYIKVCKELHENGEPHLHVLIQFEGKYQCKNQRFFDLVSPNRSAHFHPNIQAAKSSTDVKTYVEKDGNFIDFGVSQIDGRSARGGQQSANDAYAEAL
Experimental: as §1

[10] = test system: T10, Rep nickase domain of wheat dwarf virus
T10 sequence (Rep 1-137, printed without the tag): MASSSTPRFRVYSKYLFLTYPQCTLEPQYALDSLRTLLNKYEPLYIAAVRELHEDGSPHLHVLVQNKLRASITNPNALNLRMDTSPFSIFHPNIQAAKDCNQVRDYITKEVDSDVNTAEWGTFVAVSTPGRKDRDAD
Experimental: as §1

Sequence | uncleaved DNA left (log2) [1] | uncleaved DNA left (log2) [2] | uncleaved DNA left (log2) [3] | uncleaved DNA left (log2) [4] | uncleaved DNA left (log2) [5] | uncleaved DNA left (log2) [6] | uncleaved DNA left (log2) [7] | uncleaved DNA left (log2) [8] | uncleaved DNA left (log2) [9] | uncleaved DNA left (log2) [10]
GACCATC | 0.00836 | 0.109 | 0.379 | 0.726 | 0.0551 | 0.458 | 0.0274 | -0.0692 | 0.0163 | 0.0994
TGTACGG | 0.081 | 0.115 | 0.512 | 1.65 | 0.0538 | 2.16 | 0.219 | 0.14 | 0.0334 | 0.153
TTTAACT | 0.0226 | 0.0461 | -0.382 | -2.66 | 0.0453 | -0.459 | -1.31 | -0.0908 | -0.0291 | -0.0712
CGAATGC | -0.127 | -0.124 | -0.105 | 0.473 | 0.00104 | 0.843 | 0.00766 | -0.163 | -0.0156 | 0.07
GCGCAGA | 0.109 | 0.0807 | 0.0298 | 0.557 | 0.106 | 0.353 | 0.254 | 0.109 | 0.0525 | 0.0885
GGCATTA | -0.0683 | 0.0243 | 0.769 | 1.62 | -0.0345 | 1.98 | 0.183 | -0.0773 | 0.0238 | 0.205
CAGCTAG | -0.176 | -0.204 | -0.471 | -0.421 | -0.211 | -1.07 | -0.0377 | -0.198 | -0.267 | -0.0742
GGGTAGT | -0.0333 | -0.00604 | 0.806 | 1.87 | -0.155 | 2.21 | -1.34 | 0.0198 | 0.0832 | 0.169
CAAATGC | 0.0262 | -0.00495 | -0.774 | -0.69 | 0.0983 | -1.31 | 0.0902 | -0.0455 | 0.0806 | -0.0695
CGCGAAG | -0.0474 | -0.0133 | -0.321 | -0.394 | 0.0689 | -0.656 | 0.143 | 0.0406 | -0.0366 | -0.0636
CGTCAAA | 0.0636 | 0.118 | 0.231 | 0.248 | 0.105 | -0.0923 | -0.0186 | 0.0893 | 0.0659 | 0.149
AGTAAGC | 0.0946 | -0.0154 | -0.0283 | -0.174 | 0.0964 | -0.849 | 0.187 | 0.0688 | -0.00935 | -0.0235
AGTCGCG | 0.0287 | 0.0101 | -0.803 | 0.301 | 0.0388 | -0.583 | 0.212 | -0.0394 | -0.00944 | -0.0303
ATTCAGA | -0.0468 | 0.00896 | -0.166 | -0.327 | -0.0605 | -0.991 | 0.0507 | -0.0595 | -0.0772 | -0.127
GGAAGGT | 0.155 | 0.105 | 0.605 | 1.41 | 0.0642 | 1.97 | 0.202 | 0.051 | 0.0511 | 0.146
TAACCCA | -0.322 | 0.0405 | -1.4 | -3.01 | -0.0346 | -0.736 | -1.52 | -0.196 | 0.0383 | -0.532

Sequence | uncleaved DNA left (log2) [1] | uncleaved DNA left (log2) [2] | uncleaved DNA left (log2) [3] | uncleaved DNA left (log2) [4] | uncleaved DNA left (log2) [5] | uncleaved DNA left (log2) [6] | uncleaved DNA left (log2) [7] | uncleaved DNA left (log2) [8] | uncleaved DNA left (log2) [9] | uncleaved DNA left (log2) [10]
CCATCGC | 0.0514 | 0.0395 | -0.714 | -0.597 | 1.43e-05 | -1.19 | 0.215 | -0.0374 | 0.00781 | -0.1
AGTCCTC | 0.0068 | 0.0728 | 0.282 | 0.634 | 0.0222 | 0.633 | -0.114 | -0.12 | 0.0967 | 0.109
GCGTGGC | 0.0779 | 0.0312 | 0.00507 | 0.308 | -0.0108 | -0.212 | 0.165 | 0.0924 | -0.027 | -0.049
CGCATTC | 0.0106 | -0.0195 | -0.32 | -0.181 | -0.0687 | -0.947 | 0.0557 | -0.145 | -0.00557 | -0.0445
TGTGACC | -0.043 | -0.0363 | 0.0483 | 0.688 | -0.0166 | 0.327 | -0.00622 | -0.123 | -0.00799 | 0.00991
TTTGCGA | 0.0214 | 0.0195 | -0.548 | 0.849 | 0.0874 | -0.0983 | 0.0778 | -0.114 | -0.0179 | -0.0561
CCAGAGC | 0.0354 | 0.0913 | -0.467 | -0.503 | 0.089 | -0.896 | 0.0981 | 0.0139 | 0.0761 | -0.036
ACTAACT | -0.0786 | -0.169 | -0.72 | -2.69 | -0.0482 | -0.857 | -1.38 | -0.0254 | -0.103 | -0.0408
TGACCTG | 0.0492 | -0.047 | 0.00966 | 0.509 | -0.207 | 1.28 | 0.131 | -0.0887 | 0.00759 | 4.7e-05
GTTTAGC | -0.0257 | 0.0804 | 0.132 | 0.669 | -0.0255 | 0.662 | 0.068 | 0.0156 | 0.0405 | 0.00572
CGCACTT | -0.0414 | -0.0328 | 0.0497 | 0.0362 | -0.164 | 1.26 | -0.0817 | -0.193 | 0.0458 | 0.115
ACGCGTC | 0.0289 | -0.0387 | -0.85 | -0.681 | -0.0405 | -1.14 | -0.0648 | -0.193 | -0.0107 | -0.19
CGTGCAT | -0.136 | -0.111 | -0.0698 | 0.325 | -0.126 | -0.0833 | -0.157 | -0.278 | -0.103 | -0.0866
CCCGATT | 0.211 | -0.142 | -0.0717 | -1.99 | 0.188 | -0.39 | -1.53 | -0.145 | 0.0329 | -0.144
AACCAGC | -0.0123 | 0.0289 | -0.308 | -0.561 | 0.0728 | -1.06 | -0.0833 | -0.0404 | -0.00191 | -0.0106
